# Reference: PubChem BioAssay AID485294 (National Center for Advancing Translational Sciences (NCATS), 2010)
# About 150 (0.041%) of roughly 370,000 compounds were called active. Inconclusive results, whose numbers are uncertain, are shown with a selection of clear calls. The call rests on the fitted dose curve; in most records, active means well fitted inhibition curve with a large enough effect; inconclusive means small, poorly fitted or top-dose-only effect; inactive means flat fitted curve, though single readings scatter. No potency is given beside an inconclusive call; the fits are too rough.
# Target: Beta-lactamase (Escherichia coli (strain K12)) (UniProt P00811)
# UniProt P00811, sequence (P00811 whole entry, looked up): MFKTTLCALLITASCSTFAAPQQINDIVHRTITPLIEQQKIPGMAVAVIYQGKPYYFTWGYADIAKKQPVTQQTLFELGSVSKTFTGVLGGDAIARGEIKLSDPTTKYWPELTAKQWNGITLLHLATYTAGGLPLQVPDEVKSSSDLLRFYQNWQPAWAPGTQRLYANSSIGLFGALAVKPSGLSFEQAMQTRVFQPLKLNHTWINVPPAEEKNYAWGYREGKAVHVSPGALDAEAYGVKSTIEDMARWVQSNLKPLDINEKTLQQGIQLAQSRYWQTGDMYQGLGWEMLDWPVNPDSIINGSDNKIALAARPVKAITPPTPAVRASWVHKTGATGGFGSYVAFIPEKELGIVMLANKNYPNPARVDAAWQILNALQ
# Assay: qHTS Inhibitors of AmpC Beta-Lactamase (assay with detergent); further: nearly all actives have a fitted effect of over 25% in size
# Conditions: AmpC hydrolysis of nitrocefin, absorbance 480 nm, 0.01% Triton; series mostly up to 114 µM
# Procedure, shortened: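 20 mM phosphate pH 7.0 + 0.01% (detergent screen) or 0.0001% Triton X-100; 5.3 nM AmpC reagent; cpd preinc 15 min RT; nitrocefin (800 uM stock) to start; A480 q20 s × 4 min; Activity was normalised to no-enzyme and no-compound control wells.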
# Potency means the concentration at half of the fitted maximal effect; tags describe the fitted curve by direction and shape.
row,SMILES,Potency
1,CN(c1c(C#N)c(C(F)(F)F)nn1C)N(S(C)(=O)=O)S(C)(=O)=O,"inconclusive [inhibitor, full curve, poor fit]"
2,Cn1cccc1/C=C1\SC(=S)N(NC(=O)c2ccccc2)C1=O,"inconclusive [inhibitor, partial curve, poor fit]"
3,Cc1ccc(N2CN=c3s/c(=C\c4cccnc4)c(=O)n3C2)cc1,"inconclusive [inhibitor, full curve, poor fit]"
4,Cn1cnnc1SCC(=O)c1ccc2c(c1)OCO2,"inconclusive [inhibitor, full curve]"
5,O=C1c2ccccc2C(=O)N1CC(=O)N1c2ccccc2CCc2ccccc21,inactive
6,Cc1ccc(C2(C)NC(=O)N(CC(=O)N3CCN(S(=O)(=O)c4cccs4)CC3)C2=O)cc1 (centres undefined),"inconclusive [inhibitor, partial curve, poor fit]"
7,O=C(O)CCc1ccc(-c2ccccc2)n1-c1cccc(Br)c1,inactive
8,C=CCN=C(NC#N)SCc1ccccc1,"inconclusive [inhibitor, full curve]"
9,Cc1cc(-c2cc(C(=O)O)c3ccccc3n2)c(C)s1,inactive
10,COc1ccc(N/C=C/C(=O)c2ccc(Cl)cc2)cc1,"inconclusive [inhibitor, full curve, poor fit]"
11,CCOC(=O)c1c(C)[nH]c(C)c1S(=O)(=O)N1CCN(c2ccccc2OC)CC1,inactive
12,COc1ccc(Cl)cc1NC(=O)CSc1nc2ccccc2nc1N1CCCCC1,inactive
13,COc1ccc2[nH]c(C(=O)O)c(NS(=O)(=O)c3ccc(F)cc3)c2c1,"inconclusive [inhibitor, full curve, poor fit]"
14,CCOC(=O)c1c(C)oc2ncnc(N3CCN(c4cccc(Cl)c4)CC3)c12,inactive
15,CC(NC(=O)c1ccc2ccccc2n1)c1ccc(Br)cc1 (centres undefined),"inconclusive [inhibitor, single point]"
16,CC1CN(C(=O)c2cc(-c3ccncc3)nc3ccccc23)CC(C)O1 (centres undefined),inactive
17,Cc1nn(C)c2c1c(C(F)(F)F)cc(=O)n2C(C)C(=O)N1CCN(c2ccccc2)CC1 (centres undefined),inactive
18,CCC(C)(C)NC(=O)C(c1cccc(OC)c1OC)N(C(=O)CCC(=O)Nc1cc(C)on1)C(C)C (centres undefined),"inconclusive [inhibitor, partial curve, poor fit]"
19,CCCc1nnc(NC(=O)CCC(=O)N2CCC(Cc3ccccc3)CC2)s1,inactive
20,COc1ccccc1N(C)C(=O)Cn1c(=O)oc2cc(S(=O)(=O)N3CCCC3)ccc21,inactive
21,O=C(C#Cc1ccccc1)c1ccco1,"inconclusive [inhibitor, partial curve]"
22,Cc1noc(C)c1COc1cccc(C(=O)OC(C)C#N)c1 (centres undefined),inactive
23,CN1CCN(CC(O)COCc2ccc3c(c2)OCO3)CC1 (centres undefined),"inconclusive [inhibitor, partial curve, poor fit]"

row,SMILES,Potency
1,CN=C(Nc1cccc(OC)c1)SC1CC(=O)N(c2ccc(C(=O)O)cc2)C1=O (centres undefined),"inconclusive [inhibitor, partial curve, poor fit]"
2,CCNCc1cc(Cl)cc(OC)c1OC(C)C,inactive
3,O=C(Cc1ccccc1)Nc1cc(-c2nc3cc(Cl)ccc3o2)ccc1Cl,inactive
4,COc1ccc(Cc2nc3ccc(C(=O)NCc4cc(Br)ccc4OC)cc3o2)cc1,inactive
5,NC(=O)C(Cc1ccccc1)N1C(=O)c2ccccc2C1=O (centres undefined),"inconclusive [inhibitor, partial curve, poor fit]"
6,COc1ccc(OCCC(=O)Nc2cc(C)on2)cc1,inactive
7,COc1cccc(CN2CCN(C(=O)c3ccc(-c4ccccc4)cc3)CC2)c1,"inconclusive [inhibitor, partial curve]"
8,CCOC(=O)C1(Cc2cccc(OC)c2)CCCN(Cc2nccn2CC)C1 (centres undefined),inactive
9,O=[n+]1cc(-c2ccc(Cl)cc2)n([O-])c2c1CCCCC2,"inconclusive [inhibitor, partial curve, poor fit]"
10,O=C(NC1CCCN(Cc2ccc(Cl)cc2)C1)c1ccnc(Cl)c1 (centres undefined),"inconclusive [inhibitor, partial curve, poor fit]"
11,Cc1cccc(NC(=O)CSc2ccc(-c3ccco3)nn2)c1,"inconclusive [inhibitor, full curve, poor fit]"
12,Cc1nc2ccccc2c(=O)n1NC(=O)c1ccc(F)cc1Cl,"inconclusive [inhibitor, partial curve, poor fit]"
13,COC(=O)[C@@H]1Cc2c([nH]c3ccccc23)C(C)(C)N1C(=O)CCl,inactive
14,CCN1CCN(c2ccc(S(=O)(=O)N3CCCCC3)cc2NC(=O)c2cccc(C(F)(F)F)c2)CC1,"inconclusive [inhibitor, full curve, poor fit]"
15,CCN(CC(=O)NCc1ccc(Cl)cc1)C(=O)CSc1ccccc1,"inconclusive [inhibitor, full curve, poor fit]"
16,O=C(O)c1ccccc1SC1CC(=O)N(C2CCCCC2)C1=O (centres undefined),"inconclusive [inhibitor, full curve]"
17,CCOC(=O)c1csc(NC(=O)c2cc3ccccc3o2)n1,"inconclusive [inhibitor, single point]"
18,O=C(Nc1cccc([N+](=O)[O-])c1)c1ccn[nH]1,"inconclusive [inhibitor, single point]"
19,CCN(CC)C1CCS(=O)(=O)C1 (centres undefined),inactive
20,Cc1ccccc1OCc1nnc(SCC(=O)O)n1-c1cccc(Cl)c1,inactive
21,O=C(COc1cccc2cccnc12)NCC(F)(F)F,"inconclusive [inhibitor, full curve, poor fit]"
22,CC(=O)NNC(=O)CCC(=O)Nc1ccccc1,"inconclusive [inhibitor, full curve, poor fit]"
23,O=C(N/N=C\c1ccc(O)c([N+](=O)[O-])c1)c1ccccc1-n1cccc1,"inconclusive [inhibitor, single point]"

row,SMILES,Potency
1,O=C(NCCCN1CCCC(O)C1)c1cc(COc2ccc(F)cc2F)on1 (centres undefined),"inconclusive [inhibitor, full curve, poor fit]"
2,Cc1ccc(NC(=O)C(=O)c2cn(CC(=O)N3CCCCC3)c3ccccc23)cc1,inactive
3,O=C1/C(=C\c2cccnc2)CN(Cc2ccccc2)C/C1=C\c1cccnc1,"inconclusive [inhibitor, single point]"
4,CC(C)C(=O)NC(Nc1cccc([N+](=O)[O-])c1)C(Cl)(Cl)Cl (centres undefined),inactive
5,COc1cc2cc(C(=O)N(C)Cc3ccccc3)[nH]c2cc1OC,"inconclusive [inhibitor, full curve, poor fit]"
6,Cc1c(C(=O)Nc2ccccc2)sc2nc(-c3cc4ccccc4oc3=O)[nH]c(=O)c12,inactive
7,N#Cc1ccccc1NC(=O)c1ccc2c(c1)OCO2,"inconclusive [inhibitor, full curve, poor fit]"
8,Cc1sc2nc(CSc3ccccc3)nc(NCCN(C)C)c2c1C,"inconclusive [inhibitor, full curve, poor fit]"
9,Cc1cc(-n2c(C)cc(C(=O)CSc3nnnn3-c3ccccc3)c2C)no1,"inconclusive [inhibitor, partial curve, poor fit]"
10,O=C(Nc1cccc(NC(=O)c2ccccc2[N+](=O)[O-])c1)c1ccccc1Cl,"inconclusive [inhibitor, partial curve]"
11,COC(=O)c1ccc(C2C3=C(Nc4nnnn42)c2ccccc2OC3)cc1 (centres undefined),"inconclusive [inhibitor, partial curve, poor fit]"
12,Cc1c(C(=O)OCC(C)(C)CN(C)C)oc2ccccc12,"inconclusive [inhibitor, partial curve]"
13,CC1=Nc2cc(C(=O)O)ccc2Sc2ccc(C)cc21,inactive
14,COCCn1c(C(=O)N2CCCC2)cc2c1C[C@H]1CN(C(=O)c3ccccc3)[C@@](Cc3ccc(F)cc3)(C(=O)OC)[C@@H]21,"inconclusive [inhibitor, full curve]"
15,CCOC(=O)C1CCN(C(=O)C2CCN(S(=O)(=O)c3cccc4cccnc34)CC2)CC1,inactive
16,CCOc1ccc(NC(=O)CN(C)C(=O)c2ccc(N3CCCCC3)c([N+](=O)[O-])c2)cc1OCC,"inconclusive [inhibitor, full curve]"
17,CCOC(=O)CC(=O)CSc1nc2c(cc1C#N)CCCCCC2,"inconclusive [inhibitor, single point]"
18,Cc1ccc(N2CSC3=C(C#N)C(c4cccs4)CC(=O)N3C2)cc1 (centres undefined),"inconclusive [inhibitor, partial curve]"
19,COC(=O)c1c(C(=O)OC)c(-c2ccc(OC)cc2)n2c1CS(=O)(=O)C2,inactive
20,c1ccc(-c2csc(Nc3nc(N4CCOCC4)nc(N4CCOCC4)n3)n2)cc1,"inconclusive [inhibitor, partial curve, poor fit]"
21,O=C(CCc1ccc(S(=O)(=O)NCc2ccccc2)cc1)NCC1CCCO1 (centres undefined),"inconclusive [inhibitor, full curve, poor fit]"
22,Cc1cccc(CSc2nnc(Cn3c(=O)sc4ccccc43)n2C)c1,"inconclusive [inhibitor, full curve]"
23,O=C(NCCCN1CCN(CCCNC(=O)c2cccc(Cl)c2)CC1)c1cccc(Cl)c1,"inconclusive [inhibitor, single point]"
